Source: PubChem BioAssay AID686979 (National Center for Advancing Translational Sciences (NCATS), 2013)
About 50,000 (12%) of roughly 420,000 compounds were called active. The shares of active, inactive and inconclusive entries below differ from those in the screen. Calls follow the shape of the dose curve; as a rule, active = well fitted inhibition curve with a large enough effect; inconclusive = small, poorly fitted or top-dose-only effect; inactive = flat fitted curve, though single readings scatter. No potency is given beside an inconclusive call; the fits are too rough.

experiment: qHTS for Inhibitors of human tyrosyl-DNA phosphodiesterase 1 (TDP1): qHTS in cells in presence of CPT; conditions: chicken DT40 Tdp1-/-;hTDP1 cells + 20 nM CPT, ATP luminescence, 48 h; activity change, negative = growth inhibition: at 46.2 µM (top of the series); also: nearly all actives have a fitted effect of over 55% in size
How it was run: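 Chicken DT40 Tdp1-/- cells complemented with human TDP1, 400 cells/well, exposed to compounds plus 20 nM camptothecin for at least 48 h at 37 C; viability read as ATP content by CellTiter-Glo luminescence.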
% is scaled to controls: 0 for no effect and ±100 for the full control effect; potency is read from the fitted curve at half-maximal effect; tags tell the direction and shape of the fitted curve.

Q: With `COc1ccc(-c2nnc(CSc3ncnc4sc5c(c34)CCC5)o2)cc1OC` as the compound, how does the Potency read?
A: inconclusive [inhibitor, partial curve]

Q: With `Cc1cccc(C(=O)NNC(=O)c2n[nH]c(=O)c3ccccc23)c1C` as the compound, how does the Potency read?
A: inconclusive [inhibitor, partial curve, poor fit]

Q: Which Potency does the source give for `CCc1ccc(C2C(C#N)=C(N)C(C#N)(C#N)C3=CCC(C(C)(C)C)CC32)cc1` (configuration not stated) here?
A: inconclusive [inhibitor, single point]

Q: With `COc1ccccc1C(C[N+](=O)[O-])c1c(N)n(C)c(=O)n(C)c1=O` (configuration not stated) as the compound, how does the Potency read?
A: active: 3.66 µM

Q: Which Potency does the source give for `O=S(=O)(c1cccc(-c2csc(-c3cccnc3)n2)c1)N1CCCCC1` here?
A: inconclusive [inhibitor, partial curve, poor fit]

Q: With `C/C(=C\C(=O)c1ccc(Br)cc1)NCc1ccccc1` as the compound, how does the “activity change, negative = growth inhibition” value read?
A: inactive: -1.64%

Q: For `COCCn1nnnc1C(c1ccccc1OC)N1CCc2ccccc2C1` (configuration not stated), which Potency is on record?
A: inconclusive [inhibitor, full curve, poor fit]

Q: For `COc1cccc(C(=O)Nc2ccc(-c3nc4ccccc4o3)c(O)c2)c1`, which Potency is on record?
A: active: 18.4 µM

Q: With `COc1cccc(-c2nc(NC(C)C)c3ccccc3n2)c1O` as the compound, how does the Potency read?
A: inconclusive [inhibitor, single point]

Q: For `Clc1cccc(Cl)c1-c1noc(CN2CCOCC2)n1`, which “activity change, negative = growth inhibition” value is on record?
A: inactive: -0.745%

Q: For `Cc1cc(C)nc(NC(=O)/C=C/c2cccs2)c1`, which “activity change, negative = growth inhibition” value is on record?
A: inactive: -11.6%

Q: For `Cn1c2ccccc2c2nnc(SCC(=O)Nc3ccccc3F)nc21`, which Potency is on record?
A: inconclusive [inhibitor, single point]

Q: For `O=C(NCc1cccnc1)c1ccc(N2CCOCC2)c([N+](=O)[O-])c1`, which Potency is on record?
A: inconclusive [inhibitor, single point]

Q: For `O=[N+]([O-])c1ccc(C(O)CN2CCN(C/C=C/c3ccccc3)CC2)cc1` (configuration not stated), which Potency is on record?
A: inconclusive [inhibitor, single point]

Q: With `COc1ccc(N2CCN(C(CNC(=O)C(=O)NCCc3ccccc3)c3cccnc3)CC2)cc1` (configuration not stated) as the compound, how does the Potency read?
A: active: 14.6 µM

Q: With `N#CCC(=O)N/N=C/c1cc(-c2ccccc2)n(-c2ccc(Cl)cc2)c1-c1ccccc1` as the compound, how does the Potency read?
A: inconclusive [inhibitor, single point]

Q: Which Potency does the source give for `O=C(NC1CCCCC1)c1cccc2c1C(=O)c1ccc(-c3ccc(OC(F)(F)F)cc3)cc1S2(=O)=O` here?
A: active: 9.2 µM

Q: Which Potency does the source give for `O=C(NC1CCCCC1)C12CC3CC(CC(Cl)(C3)C1)C2` here?
A: inconclusive [inhibitor, single point]

Q: Which Potency does the source give for `Cc1ccc(CCNC(=O)NCc2noc3ccccc23)cc1` here?
A: inconclusive [inhibitor, partial curve]

Q: For `Cc1ccc(CN2CCC(CNC(=O)Nc3cccc(Cl)c3C)C2)cc1` (configuration not stated), which Potency is on record?
A: inconclusive [inhibitor, single point]

Q: Which Potency does the source give for `O=C(Nc1nc2ccccc2n1CCN1CCOCC1)c1ccc(COc2ccccc2Br)o1` here?
A: inconclusive [inhibitor, single point]

Q: With `Cc1ccccc1C1N(c2nccs2)C(=O)C2CCCN21` (configuration not stated) as the compound, how does the “activity change, negative = growth inhibition” value read?
A: inactive: -29.8%

Q: For `C#CCCCCCCCCCCCC(O)CC(O)CO` (configuration not stated), which Potency is on record?
A: inconclusive [inhibitor, single point]

Q: With `COc1cc(/C=C2/OC(=O)c3cc([N+](=O)[O-])ccc32)cc(OC)c1OC` as the compound, how does the “activity change, negative = growth inhibition” value read?
A: inactive: -19.3%

Q: Which Potency does the source give for `Cc1ccc(N(C(=O)c2ccccc2Cl)C2=NC(C)CS2)c(C)c1` (configuration not stated) here?
A: inconclusive [inhibitor, single point]

Q: Which Potency does the source give for `CC1=NN(C(N)=S)C(=O)C1N=Nc1c(Cl)cc([N+](=O)[O-])cc1Cl` (configuration not stated) here?
A: inconclusive [inhibitor, single point]

Q: For `CC(C)C[C@@H]1Cc2[nH]c(=S)[nH]c(=O)c2[C@H](CCc2ccccc2)O1`, which Potency is on record?
A: inconclusive [inhibitor, single point]

Q: For `COc1cc(-c2nnc(SCC3(c4ccccc4)OCCO3)o2)cc(OC)c1OC`, which Potency is on record?
A: inconclusive [inhibitor, single point]

Q: For `O=C(COc1ccc(Cl)cc1)Nc1nnc2n1CCS2`, which “activity change, negative = growth inhibition” value is on record?
A: inactive: -14.2%

Q: Which Potency does the source give for `Cc1c(CNC2CCCCCC2)c(C(=O)O)c(C)n1Cc1ccc(F)cc1Cl` here?
A: inconclusive [inhibitor, single point]

Q: For `CN(c1ccccc1)S(=O)(=O)c1cccc(C(=O)NNC(=O)c2ccncc2)c1`, which “activity change, negative = growth inhibition” value is on record?
A: inactive: -10.2%

Q: For `CCc1ccc(OCC(=O)O/N=C(\N)c2ccncc2)cc1`, which Potency is on record?
A: inconclusive [inhibitor, single point]

Q: With `O=C(NCC(c1ccco1)N1CCc2ccccc21)c1cccc(F)c1` (configuration not stated) as the compound, how does the Potency read?
A: inconclusive [inhibitor, single point]

Q: With `COCCN(C(=O)CCl)C(C(=O)NC1CCCCC1)c1ccccc1C` (configuration not stated) as the compound, how does the Potency read?
A: active: 2.91 µM

Q: For `COc1ccc(C)cc1NC(=O)CSc1nc2ccccc2nc1N1CCOCC1`, which Potency is on record?
A: inconclusive [inhibitor, single point]

Q: Which Potency does the source give for `Cc1ccc(CN(C(=O)c2ccc([N+](=O)[O-])cc2)C2CCS(=O)(=O)C2)o1` (configuration not stated) here?
A: inconclusive [inhibitor, single point]

Q: For `CC(=O)NC(CC(=O)NCCN1C(=O)S/C(=C\c2ccccc2)C1=O)c1ccccc1` (configuration not stated), which Potency is on record?
A: active: 20.6 µM

Q: Which activity change, negative = growth inhibition does the source give for `Cc1ccc(C)c(C(=O)CSc2n[nH]c(C(C)C)n2)c1` here?
A: inconclusive: -36.7% [inhibitor]

Q: For `Cc1ccccc1S(=O)(=O)Cc1ccc(C(=O)N(C)C2CCCCC2)o1`, which Potency is on record?
A: inconclusive [inhibitor, single point]

Q: For `CN=C1NN=C(c2cc(C)n(-c3ccc(Cl)cc3)c2C)CS1`, which “activity change, negative = growth inhibition” value is on record?
A: inactive: -0.408%

Q: With `N#CC1=C(N)Oc2cc3ccccc3cc2C1c1cccs1` (configuration not stated) as the compound, how does the Potency read?
A: active: 11.2 µM

Q: Which “activity change, negative = growth inhibition” value does the source give for `COC(=O)CSc1nnc(-c2ccccn2)n1N` here?
A: inactive: 1.66%

Q: For `COC(=O)c1ccc(NC(=S)N2CCCC2)cc1`, which “activity change, negative = growth inhibition” value is on record?
A: inactive: -14.7%

Q: For `COc1ccc(-c2nc3ccc(Cl)cn3c2Cc2ccc(C)cc2)cc1OC`, which Potency is on record?
A: inconclusive [inhibitor, single point]

Q: Which Potency does the source give for `O=C(NCc1ccco1)NC12CC3CC(CC(C3)C1)C2` here?
A: inconclusive [inhibitor, partial curve]

Q: For `COc1ccccc1-n1c(=O)[nH]c2c(C(N)=O)nc(-c3cccnc3)nc21`, which Potency is on record?
A: inconclusive [inhibitor, single point]

Q: Which Potency does the source give for `Cc1ccc(S(=O)(=O)N2CCCCC2)cc1NC(=O)COC(=O)c1ccc(O)cc1` here?
A: inconclusive [inhibitor, single point]

Q: With `Cc1ccc(NS(=O)(=O)c2ccc(C(=O)N3CCC3)cc2)cc1` as the compound, how does the Potency read?
A: inconclusive [inhibitor, partial curve]

Q: Which Potency does the source give for `CC(C)(C)c1ccc(N2C(=O)CSC2c2cccnc2)cc1` (configuration not stated) here?
A: inconclusive [inhibitor, partial curve]

Q: For `CC1CCCCC1NC(=O)CCS(=O)(=O)c1cc2c(cc1Cl)NC(=O)CO2` (configuration not stated), which “activity change, negative = growth inhibition” value is on record?
A: inactive: -2.62%

Q: With `O=C(Nc1ccccc1Cl)N1CCN(c2ccc3nncn3n2)CC1` as the compound, how does the “activity change, negative = growth inhibition” value read?
A: inactive: 3.27%

Q: Which “activity change, negative = growth inhibition” value does the source give for `C=CCN(c1ccccc1)S(=O)(=O)c1cc2c(cc1C)N(C)CCO2` here?
A: inactive: -1.98%

Q: Which Potency does the source give for `CCCN(CCC)S(=O)(=O)c1ccc(C(=O)OCCN2C(=O)c3cccc4c(N5CCOCC5)ccc(c34)C2=O)cc1` here?
A: inconclusive [inhibitor, single point]

Q: With `c1ccc(CNc2nc(NCCOc3ccccc3)c3sccc3n2)cc1` as the compound, how does the Potency read?
A: active: 23.1 µM

Q: Which Potency does the source give for `CC(C)c1ccc(NC(=O)c2ccc(F)c(S(=O)(=O)N3CCCCCC3)c2)cc1` here?
A: inconclusive [inhibitor, full curve]

Q: With `CCCCc1ccc(NC(=O)N[C@H](C(=O)O)C(C)C)cc1` as the compound, how does the Potency read?
A: active: 16.4 µM

Q: Which Potency does the source give for `COc1ccc(C(=O)Nc2ccccc2C(=O)N/N=C/c2ccccn2)cc1OC` here?
A: active: 4.61 µM

Q: For `O=C(NCCc1ccc(F)cc1)c1ccc(S(=O)(=O)N2CCCC2)cc1`, which “activity change, negative = growth inhibition” value is on record?
A: inactive: -28.2%

Q: For `CC(C)CN(CC(C)C)CC(O)COc1ccc([N+](=O)[O-])cc1` (configuration not stated), which Potency is on record?
A: inconclusive [inhibitor, single point]

Q: Which “activity change, negative = growth inhibition” value does the source give for `CC1CCCCN1C(=O)COC(=O)C1CCN(S(=O)(=O)c2ccc(Cl)c(C(F)(F)F)c2)CC1` (configuration not stated) here?
A: inactive: -5.65%

Q: For `O=C(NCC1CCCO1)c1ccc(NC(=O)c2cc(F)c(F)cc2Cl)cc1` (configuration not stated), which “activity change, negative = growth inhibition” value is on record?
A: inactive: 6.17%

Q: Which activity change, negative = growth inhibition does the source give for `O=[N+]([O-])c1ccc(C=NNC(=S)NN=Cc2ccc([N+](=O)[O-])cc2)cc1` here?
A: inconclusive: -35.7% [inhibitor]

Q: Which “activity change, negative = growth inhibition” value does the source give for `O=C(Nc1cccc(Cl)c1)NC1CCN(C2CCCCC2)C1` (configuration not stated) here?
A: inactive: -3%

Q: For `CC(C)Sc1cc(N2CCOCC2)nc(-c2ccc(Cl)cc2)n1`, which Potency is on record?
A: inconclusive [inhibitor, partial curve, poor fit]

Q: Which Potency does the source give for `O=C(CC1C(=O)NCCN1Cc1ccc(-c2ccccc2)cc1)NCc1ccccc1` (configuration not stated) here?
A: inconclusive [inhibitor, single point]

Q: With `CC(=O)Nc1ccc(SCC(=O)c2c(N)n(Cc3ccccc3)c(=O)n(C)c2=O)cc1` as the compound, how does the Potency read?
A: inconclusive [inhibitor, single point]

Q: For `COc1ccc(S(=O)(=O)NCCc2csc3nc(-c4ccc(OC)c(OC)c4)nn23)cc1C`, which Potency is on record?
A: inconclusive [inhibitor, single point]

Q: Which “activity change, negative = growth inhibition” value does the source give for `CC(=O)Nc1ccc(NC(=O)c2oc3cc(C)c(C)cc3c2C)cc1` here?
A: inactive: -10.1%

Q: For `CCc1ccccc1NC(=O)C1CCN(S(=O)(=O)c2ccc3[nH]c(=O)ccc3c2)CC1`, which “activity change, negative = growth inhibition” value is on record?
A: inactive: 5.28%

Q: Which Potency does the source give for `Cc1ccc(CNC(=O)c2cn(C)c(=O)c3c2c2ccccc2n3C)o1` here?
A: inconclusive [inhibitor, partial curve]

Q: For `COc1ccc(C=NNC(=S)NN=Cc2ccc(OC)c(OC)c2)cc1OC`, which Potency is on record?
A: active: 7.31 µM

Q: For `O=C1[C@H]2[C@@H](c3ccccc3)N[C@]3(CCCN(Cc4ccc(F)cc4)C3=O)[C@H]2C(=O)N1Cc1ccccc1`, which Potency is on record?
A: inconclusive [inhibitor, single point]
